Source: PubChem BioAssay AID651820 (National Center for Advancing Translational Sciences (NCATS), 2012)
The campaign covered roughly 340,000 compounds. About 12,000 (3.5%) were called active. Inconclusive means that the source gave no clear call. Such entries were picked first, then a sample of the others. Calls come from the whole dose curve; as a rule, active = well fitted inhibition curve with a large enough effect; inconclusive = small, poorly fitted or top-dose-only effect, or another doubt; inactive = no such curve, though single readings can be large or run the other way. No potency is given beside an inconclusive call; the fits are too rough.

Test: qHTS Assay for Inhibitors of Hepatitis C Virus (HCV)
Conditions: Huh7.5.1 HCVcc-Cre (HCVcc is cell-culture hepatitis C virus) infection, luciferase reporter, 44 h; activity change, negative = inhibition: at 41.8 µM (top of the series) unless noted
Procedure, shortened: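 After 44 h co-culture of compound, cells and HCVcc-Cre (~0.5 moi), substrate is added for 15 min at room temperature and luciferase measured over 15 sec. Cells were seeded at 1,000/well and pre-cultured 4 h.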
% is set by controls: 0 for no effect and ±100 for the full control effect; potency is the fitted concentration of half-maximal effect; tags give direction and shape of the fitted curve.

SMILES | Potency | activity change, negative = inhibition
O=C(Cc1cccc([N+](=O)[O-])c1)Nc1cccc(C(=O)N2CCCCC2)c1 | inconclusive [inhibitor, partial curve] | –
Cc1ccc(C(=O)N/N=C/c2cn(Cc3ccccc3)c3ccccc23)cn1 | inconclusive [inhibitor, single point] | –
COc1cc(NS(=O)(=O)c2ccc(NC(=O)/C=C/C(=O)O)cc2)nc(OC)n1 | – | inactive: -2.61%
COc1ccccc1-c1cc2nc(C)c(CCC(=O)NCc3ccco3)c(C)n2n1 | inconclusive [inhibitor, single point] | –
O=C(Nc1nc2cc3c(cc2s1)OCCO3)c1ccncc1 | inconclusive [inhibitor, single point] | –
NC(=O)c1cc(Cc2ccccc2)sc1NC(=O)c1ccco1 | inconclusive [inhibitor, single point] | –
COc1ccc(-c2cc3ccccc3s2)cc1[C@H]1[C@H]2C=CC[C@@H](C)[C@@H]2C(=O)N1Cc1ccccc1 | – | inactive: -15.7% [at 8.37 µM]
COc1cccc(/C=N/NC(=O)C(=O)N2CCCCCC2)c1OC | – | inactive: -0.961%
Cc1ccccc1NS(=O)(=O)c1cc(C(=O)Nc2cccc(N(C)S(C)(=O)=O)c2)ccc1C | inconclusive [inhibitor, full curve, poor fit] | –
CCn1c(C)nc2cc(C(=O)NNC(=S)Nc3ccc(Cl)cc3Cl)ccc21 | – | inactive: 13.1%
CCOc1ccc(-c2nnn(CC(=O)NCc3ccc(F)cc3)n2)cc1OCC | – | inactive: -5.44%
CC(C)CCOC(=O)c1c(N)n(CC2CCCO2)c2nc3ccccc3nc12 (stereo unspecified) | inconclusive [inhibitor, single point] | –
Cc1cccc(NC(=O)Nc2ccccn2)c1C | – | inactive: -12.1%
COc1ccc(-c2nc(/C=C3\C(C)=Nc4ccccc43)c(O)o2)cc1 | inconclusive [inhibitor, partial curve] | –
Cc1cc(C)c(C#N)c(SCSCc2ccccc2)n1 | inconclusive [inhibitor, single point] | –
Cc1cc(-c2ccc(C)c(S(=O)(=O)NCCCN3CCN(c4ccccc4F)CC3)c2)on1 | inconclusive [inhibitor, single point] | –
CCCOc1ccc(OC(=O)Cc2ccc(OC)c(S(=O)(=O)N3CCOCC3)c2)cc1 | inconclusive [inhibitor, full curve] | –
C=CCSc1nnc(-c2cccnc2)o1 | – | inactive: 21.2%
Cc1ccc(-n2c(C)nc3c(cnn3-c3ccc(F)cc3)c2=O)cc1 | inconclusive [inhibitor, single point] | –
COc1cc([N+](=O)[O-])ccc1NC(=O)Oc1ccc(NC(C)=O)cc1 | inconclusive [inhibitor, single point] | –
COC(=O)[C@H](NC(=O)c1cc(-c2ccccc2)nc2ccccc12)c1ccccc1 | active: 35.5 µM | –
Cn1cnc(S(=O)(=O)Nc2ccc(Cl)c(C(F)(F)F)c2)c1 | – | inactive: 9.07%
Cc1cnc(NC(=O)Nc2ccc(Cl)cc2)s1 | inconclusive [inhibitor, single point] | –

SMILES | Potency | activity change, negative = inhibition
CCc1ccc(NC(=S)NC2CCN(Cc3ccccc3)CC2)cc1 | inconclusive [inhibitor, partial curve] | –
COc1ccccc1OCC(=O)Nc1ccccc1C(=O)N1CCCCC1 | – | inactive: 9.24%
CN(C)S(=O)(=O)c1cccc(NC(=O)Cc2ccc(-c3ccccc3)cc2)c1 | inconclusive [inhibitor, single point] | –
Cc1ccc([N+](=O)[O-])cc1Nc1nc(N2CCCC2)nc(N2CCCC2)n1 | – | inactive: -11.2%
CCOc1ccc2c(c1)-c1c(ssc1=S)C(C)(C)N2 | inconclusive [inhibitor, full curve] | –
CCOc1ccc(NC(=O)CN(C)C(=O)c2csc3c2CCCC3)cc1OCC | inconclusive [inhibitor, full curve] | –
O=[N+]([O-])c1ccc2cn(-c3ccccc3)nc2c1 | inconclusive [inhibitor, partial curve] | –
CCN(c1ccccc1)S(=O)(=O)c1cccc(C(=O)NCC(c2cccs2)N(C)C)c1 (stereo unspecified) | inconclusive [inhibitor, partial curve] | –
CN(C)C(N)=NCCC[C@H](N)C(=O)O | inconclusive [inhibitor, full curve] | –
O=C(c1cc(-c2ccncc2)nc2ccccc12)N1CCN(c2ncccn2)CC1 | inconclusive [inhibitor, single point] | –
O=C(COC(=O)c1ccc2c(=O)n3c(nc2c1)CCC3)Nc1ccc(OC(F)F)cc1 | – | inactive: 10.7%
CCOC(=O)Cc1csc(NC(=O)CSc2nc(C)cc(=O)[nH]2)n1 | inconclusive [inhibitor, single point] | –
Cc1cc(C)c2cccc(NC(=S)NC(=O)c3ccccc3)c2n1 | inconclusive [inhibitor, full curve] | –
O=C(NCC1CCCO1)c1cc2cc(Cl)ccc2[nH]1 (stereo unspecified) | – | inactive: -7.62%
COc1ccc2c(c1)sc(=NC(=O)CS(=O)(=O)c1ccc(F)cc1)n2C | inconclusive [inhibitor, single point] | –
C/C(=N\Nc1nc2ccccc2[nH]1)c1ccc2c(c1)OCCO2 | inconclusive [inhibitor, single point] | –
O=C(COC(=O)COc1cccc(C(F)(F)F)c1)Nc1ccc(N2CCOCC2)cc1 | – | inactive: 10.2%
S=C(Nc1ccc(Br)cc1Cl)N1CCCC1 | – | inactive: 23.7%
CC(Nc1nc(-c2cccnc2)nc2ccccc12)c1ccc(F)cc1 (stereo unspecified) | active: 8.91 µM | –
COc1ccc(CN2CCN(CC(O)Cn3c4ccccc4c4ccccc43)CC2)cc1 (stereo unspecified) | active: 11.2 µM | –
COc1ccccc1NC(=O)NC1CCCc2ccccc21 (stereo unspecified) | – | inactive: -17%
C[C@@H](CN1CCC(Cc2ccccc2)CC1)[C@@H](O)c1ccc(O)cc1 | inconclusive [inhibitor, partial curve] | –
CCOC(=O)C1CCN(C(=O)c2ccc3c(c2)NC(=O)/C(=C\c2ccc(C)cc2)S3)CC1 | inconclusive [inhibitor, single point] | –
